In all, about 310,000 compounds went through this assay and about 14,000 (4.5%) showed an effect of 50% or more. The effect is printed as a negative number. The list shows a part of the results.
Each compound was assayed against human ether-à-go-go-related gene (hERG) potassium channel (human, UniProt Q12809) (assay: primary screen, population patch clamp on CHO cells stably expressing hERG).
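Further: peak tail current of the secondary pulse compared with the same well before compound.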

human ether-à-go-go-related gene (hERG) potassium channel, sequence (Q12809 whole entry, looked up): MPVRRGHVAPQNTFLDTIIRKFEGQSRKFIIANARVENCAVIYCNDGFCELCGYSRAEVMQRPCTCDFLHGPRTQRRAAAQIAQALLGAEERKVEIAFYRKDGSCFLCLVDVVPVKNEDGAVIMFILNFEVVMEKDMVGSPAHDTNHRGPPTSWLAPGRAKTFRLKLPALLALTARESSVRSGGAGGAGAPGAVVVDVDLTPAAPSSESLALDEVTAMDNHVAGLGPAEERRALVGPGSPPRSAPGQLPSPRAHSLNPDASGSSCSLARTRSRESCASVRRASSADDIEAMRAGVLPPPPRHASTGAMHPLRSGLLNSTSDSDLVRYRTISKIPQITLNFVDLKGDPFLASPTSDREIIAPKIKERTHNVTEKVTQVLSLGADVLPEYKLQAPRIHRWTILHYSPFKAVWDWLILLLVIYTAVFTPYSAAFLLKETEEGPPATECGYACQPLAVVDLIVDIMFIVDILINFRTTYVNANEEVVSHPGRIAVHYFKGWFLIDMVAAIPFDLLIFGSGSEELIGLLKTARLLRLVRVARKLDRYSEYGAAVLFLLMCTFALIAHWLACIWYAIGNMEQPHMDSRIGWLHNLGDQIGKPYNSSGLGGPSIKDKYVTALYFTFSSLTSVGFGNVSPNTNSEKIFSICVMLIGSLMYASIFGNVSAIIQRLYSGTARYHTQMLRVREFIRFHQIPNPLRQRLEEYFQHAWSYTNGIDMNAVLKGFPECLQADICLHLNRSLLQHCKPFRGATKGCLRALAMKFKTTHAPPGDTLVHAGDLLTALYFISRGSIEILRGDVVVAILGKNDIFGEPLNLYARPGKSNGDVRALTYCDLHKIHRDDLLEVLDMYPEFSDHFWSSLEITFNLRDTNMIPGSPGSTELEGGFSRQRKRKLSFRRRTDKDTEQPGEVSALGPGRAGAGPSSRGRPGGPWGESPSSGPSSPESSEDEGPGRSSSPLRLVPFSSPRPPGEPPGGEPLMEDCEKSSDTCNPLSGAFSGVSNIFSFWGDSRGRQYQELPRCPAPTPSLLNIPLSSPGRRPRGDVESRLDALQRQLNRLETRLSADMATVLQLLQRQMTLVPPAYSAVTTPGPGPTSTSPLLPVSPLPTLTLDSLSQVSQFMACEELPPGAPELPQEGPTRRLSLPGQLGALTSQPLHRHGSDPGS

| Structure (SMILES) | hERG current change (%, negative = inhibition) at 10uM |
| --- | --- |
| Cc1[nH]c2ccccc2c1C(=O)COc1ccccc1 | 6.08% |
| Cc1ccccc1N(CC(=O)NCC1CCCO1)C(=O)CCC(=O)Nc1nccs1 (stereo not shown) | 32.5% |
| COc1ccccc1Nc1nnc(SCC(=O)N2CCCC2=O)s1 | -11.4% |
| COc1ccc(CCNC(=O)CSc2ccc(Br)cc2)cc1OC | 23% |
| NC(=O)NNc1ncc(C(F)(F)F)cc1Cl | 2.95% |
| O=C(N/N=C/c1ccc(O)cc1)c1nc(-c2ccccc2)n(-c2ccccc2)n1 | -3.91% |
| CCN(C(=O)COC(=O)c1cc([N+](=O)[O-])ccc1N1CCOCC1)c1ccccc1 | -34.3% |
| Cc1ccc(C(=O)OCn2nnc3ccccc3c2=O)cc1[N+](=O)[O-] | 1.72% |
| COc1cc(C(=O)Nc2ccc(S(=O)(=O)N3CCc4ccccc43)cc2)cc(OC)c1OC | -4.14% |
| Cc1ccc(Oc2nccc(-c3ccc(Cl)cc3)n2)cc1 | 9.09% |
| O=C(c1ccc(Cl)c(S(=O)(=O)Nc2ccccc2C(=O)N2CCc3ccccc3C2)c1)N1CCc2ccccc2C1 | 2.64% |
| c1ccc2ncc(-n3cnnn3)cc2c1 | 7.18% |
| CC(C)Cc1nnc(NC(=O)c2cc(-c3ccccc3)nc3ccccc23)s1 | -12.3% |
| CCOC(=O)CCC(NC(=O)c1ccc(NCN2C(=O)c3ccccc3C2=O)cc1)C(=O)OCC (stereo not shown) | 4.89% |
| O=C1OCCC1Sc1nc2cc(Cl)ccc2s1 (stereo not shown) | -9.14% |
| COc1ccc(NC(=O)Cn2c(=O)sc3ccccc32)cc1 | -3.44% |
| COC(=O)COc1ccc(=O)n(-c2ccccc2)n1 | 3.87% |
| CN(C)C(=O)Oc1ccc2c(c1)O/C(=C\c1cccc([N+](=O)[O-])c1)C2=O | 18.6% |
| CCOC(=O)C1(Cc2cccc(OC)c2)CCN(CC(O)CO)CC1 (stereo not shown) | -4.39% |
| CCC(=O)Oc1ccc2c(c1)OC1(OC(C)=O)OC(C)CC1=C2C (stereo not shown) | -5.19% |
| Cc1cc(C)c(CSc2ncnc3nc[nH]c23)c(C)c1 | 11.3% |
| O=C1[N-]C(=O)C(c2ccccc2)(c2ccccc2)N1.[Na+] | 8.3% |

| Structure (SMILES) | hERG current change (%, negative = inhibition) at 10uM |
| --- | --- |
| O=C(c1cccs1)c1coc2ccc(O)c(CN3CCOCC3)c12 | -69.1% |
| CO/N=C/c1ccc(Oc2ccc([N+](=O)[O-])cc2[N+](=O)[O-])c(OC)c1 | 4.22% |
| O=C(CCNS(=O)(=O)c1ccccc1)N1CCOCC1 | 20.4% |
| CCOc1ccc(S(=O)(=O)N2CCC(C(=O)OC(C)C(=O)N(C)C3CCCCC3)CC2)cc1 (stereo not shown) | -21.6% |
| Cc1ccc(C(=O)NC(=S)N2CCCC2)cc1 | 24.9% |
| CCCCn1nnc(NC(=O)c2ccc([N+](=O)[O-])cc2Cl)n1 | -31.1% |
| COc1cc(/C=C2/C(=O)N(c3cccc(Br)c3)N=C2C)cc(OC)c1O | 32.4% |
| COc1cccc(NC(=O)COc2nc3ccccc3nc2C)c1 | 10.7% |
| CC1CCCN(CCOc2cccc(Oc3ccccc3)c2)C1.O=C(O)C(=O)O (stereo not shown) | -64.7% |
| CCc1c(O)nc(SCC(=O)Nc2nc3ccccc3s2)n(-c2ccc(C)cc2)c1=O | -17.8% |
| CS(=O)(=O)N1CCCC(C(=O)Nc2ccccc2)C1 (stereo not shown) | 10.4% |
| O=C(Oc1ccc2c(c1)OCC2=O)c1ccc(Cl)cc1 | -2.29% |
| N#Cc1nc(-c2ccccc2F)oc1NCCc1ccccn1 | -3.63% |
| COC(=O)CN=Cc1c(C)[nH]n(-c2ccccc2)c1=O | -1.99% |
| O=S(=O)(c1ccc(F)cc1)N1CCN(C(=S)NCc2ccccc2)CC1 | 13.8% |
| Cc1cc(NC(=O)c2ccccc2F)n(C(C)(C)C)n1 | 15.4% |
| C=C(C)Cn1c(SCC(=O)O)nnc1-c1ccc(OC)cc1 | -16.3% |
| O=C(CCN1C(=O)c2cccc3cccc(c23)C1=O)N1CCOCC1 | 19.9% |
| Cc1cccc(C(=O)c2ccccc2C(=O)O)c1O | 20.4% |
| Cc1cccc(N=C2NC(=O)C(CO)(CO)S2)c1 | 17.2% |
| Cc1ccc(C)c(-c2csc(NC(=O)c3cnccn3)n2)c1 | -11.9% |
| COCCNC(=O)CN(C(=O)Cn1nnc2ccccc21)c1ccc(C)c(F)c1 | 2.88% |

| Structure (SMILES) | hERG current change (%, negative = inhibition) at 10uM |
| --- | --- |
| CC1CCC(NC(=O)CCNS(=O)(=O)c2ccccc2)CC1 (stereo not shown) | 10.6% |
| O=C(CCN1C(=O)[C@@H]2Cc3ccccc3CN2C1=O)Nc1cccc(F)c1 | -13.8% |
| COc1ccc(-c2csc(N(Cc3ccco3)C(=O)c3cccs3)n2)cc1 | -3.17% |
| CCOC(=O)C1CCN(C(=O)CCn2c(=O)[nH]c3ccsc3c2=O)CC1 | -2.41% |
| COc1ccc(/C=N/NC(=O)c2cccnc2)cc1CN1CCOCC1 | 13.6% |
| C/C(=N\NC(=O)Cn1cc([N+](=O)[O-])cn1)c1ccc(O)cc1 | -5.56% |
| CNc1nnc(C(F)(F)F)s1 | 9.38% |
| CCOC(=O)C1=C(C)Nc2ccc(C)cc2S1 | 11.3% |
| CC(C)N1CCN(Cc2ccc3nsnc3c2)CC1CCO (stereo not shown) | 8.66% |
| CCOC(=O)CNC(=O)Cn1cnc2sc(C)c(S(=O)(=O)N3CCOCC3)c2c1=O | 16.4% |
| Cc1ccc2c(c1)N(CC(=O)NCCCN1CCCCC1C)C(=O)c1cccnc1O2 (stereo not shown) | 13.7% |
| O=C(NCc1ccc2c(c1)OCO2)C1CCN(C(=O)Nc2ccc(Cl)cc2)CC1 | -28.6% |
| C#CCOCCOCCOCCNc1nc(N2CCN(C(=O)[C@H]([C@@H](C)CC)n3cc([C@@H](N)Cc4ccc(O)cc4)nn3)CC2)nc(N2CCN(C(=O)[C@H](Cc3cc4ccccc4[nH]3)n3cc([C@@H](N)C(C)CC)nn3)CC2)n1.Cl (stereo partly shown) | 3.33% |
| O=C(Nc1ccccc1Oc1ccccc1)C1CCCC1 | 6.32% |
| CS(=O)(=O)N(Cc1ccccc1)c1ccccn1 | 21.1% |
| COc1ccc(CCNC(=O)C2CCC(CNc3c(N4CCCC4)c(=O)c3=O)CC2)cc1OC (stereo not shown) | 9.2% |
| C/C(CC(=O)Nc1ccc(Cl)cc1C(F)(F)F)=N\NC(=O)c1cccs1 | -10.7% |
| COc1cccc(/C=N/NC(=O)c2c(C)nc3ccc(Cl)cn23)c1OC | 26.2% |
| COc1ccc(-n2c(C)cc(/C=N/Nc3nc(N4CCOCC4)nc(N4CCOCC4)n3)c2C)cc1 | -7.03% |
| N#Cc1ccc(-c2cn(-c3ccccc3)c3[n+]2CCCS3)cc1.[Br-] | 16.3% |
| CCCCN(C1CCS(=O)(=O)C1)S(=O)(=O)c1cccs1 (stereo not shown) | -7.11% |
| c1ccc2c(CNCCN3CCOCC3)cccc2c1 | -4.74% |

| Structure (SMILES) | hERG current change (%, negative = inhibition) at 10uM |
| --- | --- |
| COC(=O)[C@H](CCSC)NC(=O)NCCc1ccccc1F | 15.4% |
| COc1ccc(NC2CCCN(C(=O)CN3CCOC3=O)C2)cc1OC (stereo not shown) | 9.01% |
| COc1cc(C2=NOC(C(=O)N3CCCCCC3)C2)cc(OC)c1OC (stereo not shown) | 3.06% |
| O=C(NCC1CCCO1)c1cncc(Br)c1 (stereo not shown) | 24.3% |
| COc1cc(C(=O)Nc2nc(-c3cc(C)ccc3C)c(C)s2)ccc1OCC(=O)Nc1ccc(F)cc1 | 12.4% |
| Cc1ccc(C(=O)C2(C)N(O)C(C)C(c3cccs3)=[N+]2[O-])cc1 (stereo not shown) | 2.14% |
| CC(Sc1nnc(N)s1)C(=O)Nc1nccs1 (stereo not shown) | 17.8% |
| CCCN1CCN(C(=O)CN2C(=O)COc3ccc(S(=O)(=O)N(CC)CC)cc32)CC1 | 4.88% |
| Cc1nn(C)c(C)c1S(=O)(=O)NC1CCCc2ccccc21 (stereo not shown) | -5.78% |
| Cn1cc(C(=O)N2CCCCC2)c(=O)c2cc(S(=O)(=O)N3CCCC3)ccc21 | 11.5% |
| COc1ccc(-c2oc3ncnc(NCCCO)c3c2-c2ccc(OC)cc2)cc1 | 4.27% |
| O=C(O)C1CC=CCC1C(=O)NCc1ccccc1 (stereo not shown) | 0.486% |
| c1coc(-c2nc(-c3ccco3)c(-c3ccco3)nc2-c2ccco2)c1 | -5.1% |
| COc1ccc(C(=O)C2CCCN(Cc3ccc(C)s3)C2)c(OC)c1 (stereo not shown) | -53.7% |
| CCCCN(C(=O)CSc1nnc(Nc2ccc(C)c(C)c2)s1)c1c(N)n(Cc2ccccc2)c(=O)[nH]c1=O | -0.113% |
| CCCn1c(N)c(N(CCOC)C(=O)c2cc3c(s2)CCC(CC)C3)c(=O)[nH]c1=O (stereo not shown) | -18.7% |
| CCn1c(NC(=O)/C=C/c2ccc(F)cc2)nc2ccccc21 | -8.36% |
| COc1ccccc1C(=O)Nc1ccc(C)cc1C(=O)c1ccccc1 | 4.34% |
| Cc1noc(NS(=O)(=O)c2ccc(N/C=C/C(=O)c3ccccc3)cc2)c1C | 18.7% |
| COc1cccc(NC(=O)Nc2cc(C)on2)c1 | 24.9% |
| Cc1ccc(Cl)cc1NC(=O)COC(=O)CN1C(=O)C2CCCCC2C1=O (stereo not shown) | -7.96% |
| O=C(CSc1nnc(-c2cccs2)n1-c1ccccc1)N1CCOCC1 | -20.2% |

From publication PMC4336329 (PLoS ONE, 2015)
